In article PMC9879932:
Positions count from the first letter of the chain named. Numbers in names are those of the source. Results are given in words; binding and its absence hold for the method and conditions named. Binding seen in cells or lysates may run through a third protein. Some binding calls cover weakened binding; strength is not graded here. Tags and fused reporters may be left off the sequences shown. One block for each binder: values may come before it.

Chains of the proteins cited; added tags and fusions are not shown.
UniProt P41208: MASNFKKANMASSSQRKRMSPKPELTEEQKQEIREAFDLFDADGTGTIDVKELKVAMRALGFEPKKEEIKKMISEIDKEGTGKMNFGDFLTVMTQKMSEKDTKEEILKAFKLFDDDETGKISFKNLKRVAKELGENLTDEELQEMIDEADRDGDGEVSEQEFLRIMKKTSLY
UniProt Q12798: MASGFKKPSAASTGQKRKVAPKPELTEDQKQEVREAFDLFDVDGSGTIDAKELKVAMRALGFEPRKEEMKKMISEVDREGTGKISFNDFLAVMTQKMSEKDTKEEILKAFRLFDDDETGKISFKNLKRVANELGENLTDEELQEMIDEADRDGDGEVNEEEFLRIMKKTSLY

Legend:
Assay in all cases: co-IP; HEK-293T co-transfected with GFP, GFP-USP49Long or GFP-USP49Short (or USP49 mutants) and the FLAG-tagged partner; lysed 24 h later in co-IP buffer (150 mM NaCl, 20 mM Tris-HCl pH 7.4, 1% NP-40, 1 mM MgCl2) with Benzonase; immunoprecipitation with anti-FLAG, control IgG or anti-CETN3 on Dynabeads Protein G; western blot
CETN2-FLAG (human) = CETN2-FLAG (human) (UniProt P41208)
CETN1-FLAG (human) = CETN1-FLAG (human) (UniProt Q12798)
USP44-FLAG-HA = biological target: T1, USP44-FLAG-HA (UniProt Q9H0E7)
T1 sequence: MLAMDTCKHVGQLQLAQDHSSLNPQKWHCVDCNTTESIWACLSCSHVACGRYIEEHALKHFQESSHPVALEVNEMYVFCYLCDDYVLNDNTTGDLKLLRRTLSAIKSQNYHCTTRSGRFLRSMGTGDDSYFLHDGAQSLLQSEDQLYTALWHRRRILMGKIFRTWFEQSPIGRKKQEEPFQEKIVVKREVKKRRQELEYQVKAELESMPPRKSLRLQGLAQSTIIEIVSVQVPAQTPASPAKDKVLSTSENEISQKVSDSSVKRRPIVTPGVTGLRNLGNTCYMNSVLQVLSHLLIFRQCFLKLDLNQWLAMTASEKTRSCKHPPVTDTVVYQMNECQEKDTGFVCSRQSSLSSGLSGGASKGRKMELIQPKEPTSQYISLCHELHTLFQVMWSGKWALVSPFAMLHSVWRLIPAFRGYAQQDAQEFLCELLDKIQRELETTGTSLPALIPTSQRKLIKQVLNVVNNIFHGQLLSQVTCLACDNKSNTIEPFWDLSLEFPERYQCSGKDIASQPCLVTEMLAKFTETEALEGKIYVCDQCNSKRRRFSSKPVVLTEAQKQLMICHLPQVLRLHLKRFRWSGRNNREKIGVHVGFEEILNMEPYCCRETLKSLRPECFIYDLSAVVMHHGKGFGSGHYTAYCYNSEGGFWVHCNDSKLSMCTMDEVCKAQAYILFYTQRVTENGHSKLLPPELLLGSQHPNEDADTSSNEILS

CETN3-FLAG (human) = biological target: T2, CETN3-FLAG (human) (UniProt O15182)
T2 sequence: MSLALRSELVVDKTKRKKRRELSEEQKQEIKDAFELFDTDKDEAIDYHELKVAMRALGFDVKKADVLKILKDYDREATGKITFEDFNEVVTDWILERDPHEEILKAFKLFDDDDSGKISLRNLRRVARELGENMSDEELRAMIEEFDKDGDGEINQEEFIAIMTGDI

RPN1-FLAG (ribophorin 1) = biological target: T3, RPN1-FLAG (ribophorin 1) (UniProt P04843)
T3 sequence: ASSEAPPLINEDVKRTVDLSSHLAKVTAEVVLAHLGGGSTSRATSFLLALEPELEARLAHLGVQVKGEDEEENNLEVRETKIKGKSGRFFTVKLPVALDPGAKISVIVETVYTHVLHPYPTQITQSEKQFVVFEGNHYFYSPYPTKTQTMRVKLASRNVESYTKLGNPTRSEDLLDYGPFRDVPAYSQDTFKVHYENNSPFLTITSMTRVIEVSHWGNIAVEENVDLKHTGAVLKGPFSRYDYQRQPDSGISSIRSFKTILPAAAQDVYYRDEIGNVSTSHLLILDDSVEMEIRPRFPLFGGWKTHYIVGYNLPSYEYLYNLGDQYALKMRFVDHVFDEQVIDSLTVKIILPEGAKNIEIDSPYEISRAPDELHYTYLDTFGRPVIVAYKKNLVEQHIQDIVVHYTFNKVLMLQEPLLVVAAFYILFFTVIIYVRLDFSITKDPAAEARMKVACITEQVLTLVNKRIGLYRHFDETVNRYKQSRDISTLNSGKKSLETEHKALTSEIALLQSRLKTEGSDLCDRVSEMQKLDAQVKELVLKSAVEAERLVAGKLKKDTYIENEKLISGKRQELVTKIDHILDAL

B1: GFP-USP49Long (pCDH-GFP-USP49Long) (enzyme, UniProt Q70CQ1 1-688)
chain: MDRCKHVGRLRLAQDHSILNPQKWCCLECATTESVWACLKCSHVACGRYIEDHALKHFEETGHPLAMEVRDLYVFCYLCKDYVLNDNPEGDLKLLRSSLLAVRGQKQDTPVRRGRTLRSMASGEDVVLPQRAPQGQPQMLTALWYRRQRLLARTLRLWFEKSSRGQAKLEQRRQEEALERKKEEARRRRREVKRRLLEELASTPPRKSARLLLHTPRDAGPAASRPAALPTSRRVPAATLKLRRQPAMAPGVTGLRNLGNTCYMNSILQVLSHLQKFRECFLNLDPSKTEHLFPKATNGKTQLSGKPTNSSATELSLRNDRAEACEREGFCWNGRASISRSLELIQNKEPSSKHISLCRELHTLFRVMWSGKWALVSPFAMLHSVWSLIPAFRGYDQQDAQEFLCELLHKVQQELESEGTTRRILIPFSQRKLTKQVLKVVNTIFHGQLLSQVTCISCNYKSNTIEPFWDLSLEFPERYHCIEKGFVPLNQTECLLTEMLAKFTETEALEGRIYACDQCNSKRRKSNPKPLVLSEARKQLMIYRLPQVLRLHLKRFRWSGRNHREKIGVHVVFDQVLTMEPYCCRDMLSSLDKETFAYDLSAVVMHHGKGFGSGHYTAYCYNTEGGFWVHCNDSKLNVCSVEEVCKTQAYILFYTQRTVQGNARISETHLQAQVQSSNNDEGRPQTFS
- binding (CETN2-FLAG (human)): binds
- binding (CETN1-FLAG (human)): binds
- binding (USP44-FLAG-HA): binds
- binding (CETN3-FLAG (human)): binds

B4: USP49Long^W158A (enzyme, UniProt Q70CQ1 1-688)
chain: B1 chain with W158A
- binding (CETN2-FLAG (human)): no binding
- binding (CETN1-FLAG (human)): no binding
- binding (CETN3-FLAG (human)): binds

Now from value to binder:

- binding (RPN1-FLAG (ribophorin 1)): binds
B2: GFP-USP49Long (pEGFP-USP49Long) (enzyme, UniProt Q70CQ1 1-688)
chain: B1 chain

- binding (CETN2-FLAG (human)): binds
- binding (CETN1-FLAG (human)): binds
- binding (CETN3-FLAG (human)): binds
B3: USP49Long^C262A (enzyme, UniProt Q70CQ1 1-688)
chain: B1 chain with C262A
